# Test results taken from article PMC10668032.
# The list shows a part of the results. At the low end of the ranking the order means little.
# Molecular target: SIX1 homeodomain (reference allele) (UniProt Q15475)
# Assay: universal protein binding microarray
# Conditions: Universal all-10-mer PBM (8x60K, AMADID 030236), 300 nM GST-tagged protein, Alexa Fluor 488 anti-GST; buffer, salt, pH and temperature not stated; high values mean tight binding; most listed sequences are background and not binding sites; double strand, one strand shown
row,Sequence,binding signal [E-score]
1,ATTCTTCG,0.0829
2,ACATGCAC,0.0164
3,CTCGACGA,-0.0931
4,GGTGCGTA,0.0415
5,CGAAGTAG,-0.152
6,CTCGAAGC,-0.188
7,ATTGATTC,0.102
8,ATCAAATA,0.239
9,GGCCTAAA,-0.249
10,TCCCGCCA,-0.0222
11,GAGGCCGA,-0.236
12,AGACAGCA,0.00034
13,ATATAAAC,0.0704
14,ATACTCGA,0.249
15,CTAAGAAC,-0.0504
16,AGATCAGC,0.273
17,AATGCATG,-0.0336
18,AATCTGGG,0.132
19,ATCGAAGA,0.293
20,CTACGGAC,-0.255
21,CCATGTAA,0.0612
22,CCAAAGGG,0.0408
23,GCATGGGC,-0.135
24,CGTCAACC,-0.262
25,TATAGGCA,0.000955

row,Sequence,binding signal [E-score]
1,GGCAGATA,0.216
2,CCTGGGAC,-0.0923
3,AGATTATG,0.229
4,AACACTGG,0.029
5,AGATATAC,0.38
6,ACTAAGCG,-0.0108
7,ATAAAACG,-0.00883
8,GTTGTGAA,-0.142
9,CCTGTTCA,-0.0491
10,GACCGCAC,-0.201
11,GTAGGTTA,-0.141
12,CATTCTGA,-0.0505
13,GGGTCTAC,0.0459
14,AGGTGTGG,0.186
15,GTGCCAAA,-0.165
16,TCTGATCA,0.148
17,ACGTTTGC,-0.193
18,CGCTTAAC,-0.221
19,ACCTTAAA,-0.158
20,ATTCTCAG,-0.106
21,GTCCCATA,-0.126
22,CCGAGTAC,0.0443
23,ACGTAACT,-0.158
24,ACGTGGGG,-0.101
25,CCCACGGG,-0.214

row,Sequence,binding signal [E-score]
1,CAAAGGCA,-0.235
2,AGTGCGTG,-0.0573
3,TGAGTTAA,-0.151
4,CACCATGG,0.16
5,GAAACAGC,-0.203
6,CTTAAGTA,-0.0644
7,ACCCATCA,-0.0971
8,CACGTCTG,-0.122
9,AATAGTAG,0.0339
10,ACCAGACT,-0.0538
11,GGTTTTGA,-0.0912
12,CGGCACTA,-0.0757
13,ATCGATGA,0.135
14,CCAGCCCG,-0.0291
15,CTCCTGTC,-0.0964
16,CGCTGCAG,-0.166
17,CAAGCGTC,-0.0426
18,CTTTGTGC,-0.2
19,TACTGAGA,0.0485
20,AAGCGGAC,0.0304
21,AGTCACGA,-0.153
22,ACGGTATA,0.309
23,CCTGAAAC,-0.0705
24,ATTCGCCG,-0.0021
25,CGTCCTAG,-0.289

row,Sequence,binding signal [E-score]
1,CTGCCCAA,-0.0899
2,AAAACGAA,-0.171
3,CAGGTCAC,-0.251
4,GATACGAC,0.382
5,GCGACCCA,-0.127
6,CATCGTGC,-0.211
7,ATAAGTAG,0.0134
8,GCCGATGA,0.0868
9,GCACGGGC,-0.119
10,AACTAAGA,0.0432
11,CATCGTCA,0.0178
12,ATATAGAA,0.222
13,AGTGGCCG,-0.146
14,AATAATCT,0.186
15,GAACACTA,-0.051
16,CGCTTGGA,0.101
17,ACGCAGTC,-0.122
18,ATGCTAGC,0.00374
19,GTCGCACA,-0.219
20,TGGTTACA,-0.0768
21,CTTTTAAA,-0.216
22,GGTCAACC,-0.0588
23,CGACCTAA,-0.0576
24,CCACGAAC,-0.0076
25,CGTTCCAG,-0.127

row,Sequence,binding signal [E-score]
1,CCGGCAGA,-0.2
2,CCGATTGA,0.144
3,GCCGGCCC,-0.268
4,ATGTGAAC,-0.0746
5,ACTTGCCG,-0.327
6,AAGCCTAA,-0.229
7,ATAGGCCC,0.1
8,ATCCCAGC,0.221
9,GACGCGTC,-0.124
10,ACTCGGTA,0.0753
11,AAGAAGCA,-0.197
12,ATACGAAC,0.0751
13,CCCCCCCC,-0.0883
14,CGTTTTAA,-0.0975
15,AAACAGTC,-0.334
16,AACCAACA,0.0225
17,CTAGGCCC,-0.186
18,GACTCCGC,-0.172
19,ACCACGCG,-0.0453
20,GTGATTTA,-0.0365
21,ATCAACAA,0.222
22,ATGGATAA,0.212
23,GTAAGCGA,0.00135
24,AGTTCAAA,-0.149
25,CGACGGAC,-0.205

row,Sequence,binding signal [E-score]
1,AGGCTTTC,-0.0855
2,GTAATTAA,-0.0167
3,CCGGGAAA,0.0936
4,TAAAGCAA,-0.0823
5,CGTCCAAG,-0.199
6,CACGCTAG,-0.13
7,CTATGCCA,-0.16
8,GATACGCC,0.452
9,ATAACTAC,0.0577
10,CTAGTAGC,-0.0685
11,GTGTCATA,0.369
12,GCTCCTAA,-0.117
13,CCCCACAA,-0.0493
14,GGGACAAC,-0.228
15,CAAGTCGC,-0.123
16,GGGCACGA,-0.029
17,AAGCCCTT,-0.247
18,AACTTGGT,-0.00434
19,ATTCCACA,0.0514
20,CCCTAAAG,-0.0576
21,CCGGAGAC,0.184
22,GGTTGAGA,0.139
23,CAATGGCG,-0.125
24,AAAGGGTC,-0.162
25,GGTCGGAA,-0.000905

row,Sequence,binding signal [E-score]
1,GCCTGGAC,-0.0674
2,CCTGTCAA,-0.205
3,AGACAGCT,-0.231
4,AAGAAACT,-0.294
5,CGGTCCAG,-0.221
6,CTACCCAA,-0.0934
7,AAGGATGT,-0.188
8,TACATCAA,0.00626
9,AGCACAGC,-0.158
10,AATATTGT,-0.0381
11,GATTTTGA,-0.077
12,GCCGACGA,-0.17
13,GGGTACCA,-0.0243
14,ACCATGTA,0.197
15,CGTGTAAA,-0.000385
16,AAGGTCAT,-0.0666
17,ATGCGCAC,-0.0945
18,CGATTAGC,-0.147
19,CAGCCCTA,-0.0686
20,CCTTCTAG,0.0229
21,AAGACATT,-0.259
22,ACGCTTGG,-0.0773
